# Test results: PubChem BioAssay AID588342 (National Center for Advancing Translational Sciences (NCATS), 2011)
# Where “and” joins values, the source holds several entries; their conditions need not be identical. Equal values may be shown once. The whole screen tested about 360,000 compounds, of which about 25,000 (6.9%) were called active. Inconclusive results, whose numbers are uncertain, are shown with a selection of clear calls. Calls come from the whole dose curve; as a rule, active = well fitted inhibition curve with a large enough effect; inconclusive = small, poorly fitted or top-dose-only effect; inactive = flat fitted curve, though single readings scatter. Potencies of inconclusive entries are doubtful fits and often do not repeat. The source holds several records for some structures; these can differ, active in one and inactive in another.
# Molecular target: Luciferin 4-monooxygenase (Photinus pyralis) (UniProt P08659)
# Assay: qHTS profiling assay for firefly luciferase inhibitor/activator using purifed enzyme and Km concentrations of substrates (counterscreen for miR-21 project); note: nearly all actives have a fitted effect of over 55% in size;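 for activity change, negative = inhibition: plate controls were vehicle for no effect and reference inhibitor for full effect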
# Conditions: purified FLuc, luminescence inhibition; activity change, negative = inhibition: at 57.5 µM (top of the series)
# Outline: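 Purified P. pyralis luciferase (10nM final) with 10uM D-luciferin and 10uM ATP (Km levels) in 50mM Tris acetate pH 7.5, 10mM Mg acetate, 0.01% Tween-20, 0.05% BSA; qHTS 6-point titration, ~60 µM downward; luminescence read.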
# Potency is the fitted concentration of half-maximal effect; tags give direction and shape of the fitted curve.
# UniProt P08659, sequence (P08659 whole entry, looked up): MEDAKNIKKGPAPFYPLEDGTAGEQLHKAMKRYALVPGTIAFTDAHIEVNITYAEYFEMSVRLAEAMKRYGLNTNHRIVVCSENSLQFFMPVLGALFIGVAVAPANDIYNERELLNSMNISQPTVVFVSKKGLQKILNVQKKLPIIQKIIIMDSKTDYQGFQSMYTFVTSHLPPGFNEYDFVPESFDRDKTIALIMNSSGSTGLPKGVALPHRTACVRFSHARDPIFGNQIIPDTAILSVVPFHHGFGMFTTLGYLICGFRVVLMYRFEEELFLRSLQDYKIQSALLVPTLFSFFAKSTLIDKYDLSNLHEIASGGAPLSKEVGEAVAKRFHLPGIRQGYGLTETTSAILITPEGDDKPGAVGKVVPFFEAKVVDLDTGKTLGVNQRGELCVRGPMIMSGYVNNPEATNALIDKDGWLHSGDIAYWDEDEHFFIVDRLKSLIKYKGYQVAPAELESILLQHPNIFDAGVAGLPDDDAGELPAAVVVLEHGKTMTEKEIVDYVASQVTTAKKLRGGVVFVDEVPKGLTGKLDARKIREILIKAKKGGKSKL
SMILES,Potency,"activity change, negative = inhibition"
COc1ccc(Cc2nnc(SCC(=O)Nc3ccc(N4CCOCC4)cc3)n2C)cc1,"inconclusive: 26.9 µM [inhibitor, single point]",–
CN(C)c1cc(-c2ccccc2)nc(-c2ccccc2)n1,–,inactive: -1.2%
O=C(CNc1ccccc1F)Nc1cccc(S(=O)(=O)N2CCCCC2)c1,"inconclusive: 12 µM [inhibitor, partial curve]",–
Cc1cc(/C=N/NC(=O)c2nn(C)cc2Cl)c(C)n1-c1cccc(Br)c1,active: 23.9 µM,–
COc1ccc(N2C(=O)NC(NS(=O)(=O)c3ccc(NC(C)=O)cc3)(C(F)(F)F)C2=O)cc1 (stereo not given),inactive,–
CC(C)c1ccc(NC(=O)CSc2nc3ccsc3c(=O)n2CCC(=O)O)cc1,"inconclusive: 37.9 µM [inhibitor, partial curve, poor fit]",–
Cc1ccc(C2(C(F)(F)F)N=C3Sc4cc(C)cc(C)c4N3C(=O)N2)cc1 (stereo not given),"inconclusive: 26.9 µM [inhibitor, partial curve, poor fit]",–
CCc1ccc2c(c1)C1(NN=C(c3ccccc3)S1)C(=O)N2 (stereo not given),"inconclusive: 26.9 µM [inhibitor, partial curve, poor fit]",–
Cc1ccc(-c2noc(-c3ccc(NC4CCCC4)c([N+](=O)[O-])c3)n2)cc1,"inconclusive: 16.9 µM [inhibitor, partial curve, poor fit]",–
O=c1c2ccccc2oc2ccc(NCCCN3CCOCC3)cc12,active: 8.49 µM,–
Cc1ccc(C(=O)Nc2ccccc2)cc1S(=O)(=O)Nc1ccc(Cl)cn1,"inconclusive: 21.3 µM [inhibitor, single point]",–
Cc1cc(-n2c(SCc3ccccc3F)nc3[nH]ncc3c2=O)ccc1Cl,"inconclusive: 30.1 µM [inhibitor, single point]",–
Cc1cccc(C)c1N=Cc1c(O)n(-c2nccs2)c(=O)c2ccccc12,–,inactive: -0.141%
Cc1cc(C)n(-c2nnc(NC(C)(C)C)nn2)n1,active: 21.3 µM,–
Cc1ccc(N(CC(=O)N/N=C/c2cc(C)n(-c3ccccc3)c2C)S(C)(=O)=O)c(C)c1,"inconclusive: 26.9 µM [inhibitor, single point]",–
CC(/C=C1\NC(=S)NC1=O)=C\c1ccccc1,"inconclusive: 21.3 µM [inhibitor, partial curve, poor fit]",–
O=C(Nc1nccs1)c1ccc2ccccc2c1,active: 3.01 µM,–
COc1ccccc1-c1nnc(Nc2nc3c(OC)cccc3s2)o1,active: 2.69 µM,–
CN(CCC#N)C(=O)CSc1nnc(-c2c[nH]c3ccccc23)o1,"inconclusive: 37.9 µM [inhibitor, partial curve, poor fit]",–
CCc1nn2c(=O)cc(COC(=O)c3ccccc3NC(=O)COc3ccccc3C)nc2s1,–,inactive: 2.84%
COC(=O)/C=C1\OC(c2ccccc2)=CC1=O,"inconclusive: 19 µM [inhibitor, single point]",–
Cc1ccc(-c2nn(-c3ccccc3)cc2C(N)=O)o1,"inconclusive: 37.9 µM [inhibitor, partial curve, poor fit]",–
CCC(CO)[n+]1c(C)cc(/C=C2\Sc3ccccc3N2Cc2ccccc2)cc1C (stereo not given),"inconclusive: 19 µM [inhibitor, partial curve, poor fit]",–

SMILES,Potency,"activity change, negative = inhibition"
O=C(O)c1cccc(Nc2ncnc3sccc23)c1,active: 7.57 µM,–
CN1CCN(Cc2nc3ccccc3c(=O)n2Cc2nc(-c3ccccc3F)cs2)CC1,"inconclusive: 21.3 µM [inhibitor, single point]",–
CCCc1ccc(Oc2cc(Cl)nc(N)n2)cc1,–,inactive: -4.72%
Cc1ccc(OC(=O)c2ccc(S(=O)(=O)N(C)C)cc2)c(-n2nc3ccccc3n2)c1,"inconclusive: 15.1 µM [inhibitor, partial curve]",–
Cc1cc(N2CCCCC2)n2ncc(-c3ccccc3)c2n1,active: 0.269 µM,–
COc1ccc(OCC(=O)Nc2nnc(S(=O)(=O)N3CCCCCC3)s2)cc1,inactive and active: 15.1 µM,–
Cc1ccc(Cn2ccnc2C(=O)Nc2ccccc2)cc1,active: 7.57 µM,–
Cc1ccccc1-c1nc(C#N)c(NCc2ccco2)o1,"inconclusive: 26.9 µM [inhibitor, partial curve, poor fit]",–
Cc1ccnc(NC(=O)CNC(=O)c2ccc(Br)o2)c1,"inconclusive: 26.9 µM [inhibitor, partial curve, poor fit]",–
Cc1ccc(/C=N/NC(=O)c2ccco2)s1,active: 15.1 µM,–
Cc1ccc(-n2c(CCC(=O)O)ccc2-c2cccs2)cc1C,active: 12 µM,–
c1ccc(OCc2nc3ccccc3[nH]2)cc1,active: 12 µM,–
Cc1cc(C(=O)N/N=C2\CC(=O)CC(C)(C)C2)c(C)n1-c1ccc(F)cc1,"inconclusive: 30.1 µM [inhibitor, partial curve, poor fit]",–
COc1ccccc1C(=O)NC(=O)Nc1cccc(Cl)c1,active: 2.69 µM,–
CC1=C(C#N)C(=O)N(C2CCS(=O)(=O)C2)C(=O)/C1=C\c1ccc(C)o1 (stereo not given),"inconclusive: 8.49 µM [inhibitor, partial curve, poor fit]",–
O=C(c1ccco1)N(Cc1cccnc1)c1nc2ccc(F)cc2s1,"inconclusive: 30.1 µM [inhibitor, partial curve, poor fit]",–
Cc1cc(S(=O)(=O)N2c3ccc(F)cc3CCC2C)ccc1-n1cnnn1 (stereo not given),–,inactive: 2.05%
Cc1ccnc(NC(=O)c2ccc(Cl)c(NC(=O)C(C)Oc3ccccc3)c2)c1 (stereo not given),"inconclusive: 21.3 µM [inhibitor, partial curve, poor fit]",–
O=c1[nH]c(SCCOc2cccc3ccccc23)nc2ccccc12,"inconclusive: 26.9 µM [inhibitor, partial curve, poor fit]",–
CCOC(=O)Cn1c(=O)oc2cc(S(=O)(=O)N3CCN(c4ccc(Cl)cc4)CC3)ccc21,–,inactive: 1.11%
CCN(CC)c1ccc2c(Cl)c(Br)c(=O)oc2c1,"inconclusive: 30.1 µM [inhibitor, partial curve, poor fit]",–
Cc1sc(NC(=O)C2=COCCO2)c(C#N)c1C,"inconclusive: 3.79 µM [inhibitor, partial curve, poor fit]",–
